Assay results published in paper PMC11247499, “2,8-Disubstituted-1,5-naphthyridines as Dual Inhibitors of Plasmodium falciparum Phosphatidylinositol-4-kinase and Hemozoin Formation with In Vivo Efficacy” (Journal of Medicinal Chemistry, 2024).
Values after ≈ are worked out from the molar mass of the structure shown. Like-named read-outs stand apart in the source and are kept apart here.

Legend:
pKa of piperidine N = format: physicochemical
physchem [1] = details: pH 7.4
[2] = In vitro microsomal stability, mouse; format: in vitro ADME; details: pH 7.4; mouse liver microsomes; read-out: microsomal CLint, app mouse
[3] = Plasma protein binding, mouse; format: in vitro ADME; details: read-out: PPB fu, mouse
physchem [4] = experiment: physchem
[5] = tested on: P. falciparum Pf3D7 0087/N9; experiment: animal or person; details: Plasmodium falciparum, in Mus musculus
[6] = tested on: liver stage P. falciparum NF54
[7] = tested on: P. falciparum Pf3D7 0087/N9; details: in vivo
[8] = Plasma protein binding, human; format: in vitro ADME; details: read-out: PPB fu, human
[9] = human

pKa of piperidine N (pKa of piperidine N) | logD at 3 h (physchem [1]) | SMILES | CLint scaled at 1 µM [2] | fraction unbound at 4 h, 5 µM [3] | solubility (physchem [4]) | solubility (physchem [4]; pH 6.5) | EC50 [5] | liver schizont activity at 1 μM [6] | Kkill [7] | lag phase before the onset of action (P. falciparum 3D7) | log PRR (P. falciparum 3D7) | parasite clearance time (P. falciparum 3D7) | fraction unbound at 4 h, 5 µM [8] | Vd [9] | clearance [9] | half-life ([9]; Terminal half-life)
8.98 | 1.41 | CC1(C)CC(Nc2ccnc3ccc(-c4ccc(C(F)(F)F)nc4)nc23)CCN1 (stereo not drawn) [Compound 25, N-(2,2-Dimethylpiperidin-4-yl)-6-[6-(trifluoromethyl)pyridin-3-yl]-1,5-naphthyridin-4-amine] |  |  |  |  |  |  |  |  |  |  |  |  |  | 
7.99 | 1.53 | FC(F)(F)c1ccc(-c2ccc3nccc(NC4CCNC5(CC5)C4)c3n2)cn1 (stereo not drawn) [Compound 26, N-(4-Azaspiro[2.5]octan-7-yl)-6-[6-(trifluoromethyl)pyridin-3-yl]-1,5-naphthyridin-4-amine] |  |  | 200 µM (≈ 79.9 µg/mL) |  |  |  |  |  |  |  |  |  |  | 

SMILES | pKa of piperidine N (pKa of piperidine N) | logD at 3 h (physchem [1]) | CLint scaled at 1 µM [2] | fraction unbound at 4 h, 5 µM [3] | solubility (physchem [4]) | solubility (physchem [4]; pH 6.5) | EC50 [5] | liver schizont activity at 1 μM [6] | Kkill [7] | lag phase before the onset of action (P. falciparum 3D7) | log PRR (P. falciparum 3D7) | parasite clearance time (P. falciparum 3D7) | fraction unbound at 4 h, 5 µM [8] | Vd [9] | clearance [9] | half-life ([9]; Terminal half-life)
FC(F)(F)c1ccc(-c2ccc3nccc(NC4CCNCC4)c3n2)cn1 [Compound 17, N-Piperidin-4-yl-6-[6-(trifluoromethyl)pyridin-3-yl]-1,5-naphthyridin-4-amine] | 9.42 | 0.81 | < 46 mL/min/kg | 0.3 | 200 µM (≈ 74.7 µg/mL) | 200 µM (≈ 74.7 µg/mL) | 0.0314 µg/mL (≈ 0.0841 µM) | no activity | 0.0292 h⁻¹ | did not show any delay | 3.9 | around 40 h | 0.3 | 9.4 L/kg | 0.7 mL/min/kg | 155 h
